Measured values: a compilation of properties of binary mixtures (doi:10.1007/s10953-022-01241-4)
Some of these densities may be calculated back from excess volumes.

Assay: xn = mol fraction of the nth substance listed
Conditions: 100 kPa

C[P+](c1ccccc1)(c1ccccc1)c1ccccc1.[Br-] + OCCO
mass density [kg/m3]
Conditions | 293.15 K | 298.15 K | 303.15 K | 308.15 K | 313.15 K | 318.15 K | 323.15 K
x1 = 0.1 | 1185 | – | 1178 | 1174 | – | 1167 | 1163
x1 = 0.13 | 1196 | 1193 | 1189 | 1186 | 1182 | 1178 | 1174
x1 = 0.17 | 1212 | 1208 | 1204 | 1201 | 1197 | 1194 | 1190
x1 = 0.2 | 1223 | 1219 | 1215 | 1212 | 1208 | 1205 | 1201
x1 = 0.25 | 1236 | 1232 | 1228 | 1225 | 1221 | – | 1214
x1 = 0.33 | 1247 | 1244 | – | 1237 | – | 1230 | 1226
